Measurements: PMC4336329 (PLoS ONE, 2015)
In all, about 310,000 compounds went through this assay and about 14,000 (4.5%) showed an effect of 50% or more. The effect is printed as a negative number. The list shows a part of the results.

Target: human ether-à-go-go-related gene (hERG) potassium channel (human, UniProt Q12809)
Assay: primary screen, population patch clamp on CHO cells stably expressing hERG
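Further: peak tail current of the secondary pulse compared with the same well before compound.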

Sequence of human ether-à-go-go-related gene (hERG) potassium channel (Q12809 whole entry, looked up): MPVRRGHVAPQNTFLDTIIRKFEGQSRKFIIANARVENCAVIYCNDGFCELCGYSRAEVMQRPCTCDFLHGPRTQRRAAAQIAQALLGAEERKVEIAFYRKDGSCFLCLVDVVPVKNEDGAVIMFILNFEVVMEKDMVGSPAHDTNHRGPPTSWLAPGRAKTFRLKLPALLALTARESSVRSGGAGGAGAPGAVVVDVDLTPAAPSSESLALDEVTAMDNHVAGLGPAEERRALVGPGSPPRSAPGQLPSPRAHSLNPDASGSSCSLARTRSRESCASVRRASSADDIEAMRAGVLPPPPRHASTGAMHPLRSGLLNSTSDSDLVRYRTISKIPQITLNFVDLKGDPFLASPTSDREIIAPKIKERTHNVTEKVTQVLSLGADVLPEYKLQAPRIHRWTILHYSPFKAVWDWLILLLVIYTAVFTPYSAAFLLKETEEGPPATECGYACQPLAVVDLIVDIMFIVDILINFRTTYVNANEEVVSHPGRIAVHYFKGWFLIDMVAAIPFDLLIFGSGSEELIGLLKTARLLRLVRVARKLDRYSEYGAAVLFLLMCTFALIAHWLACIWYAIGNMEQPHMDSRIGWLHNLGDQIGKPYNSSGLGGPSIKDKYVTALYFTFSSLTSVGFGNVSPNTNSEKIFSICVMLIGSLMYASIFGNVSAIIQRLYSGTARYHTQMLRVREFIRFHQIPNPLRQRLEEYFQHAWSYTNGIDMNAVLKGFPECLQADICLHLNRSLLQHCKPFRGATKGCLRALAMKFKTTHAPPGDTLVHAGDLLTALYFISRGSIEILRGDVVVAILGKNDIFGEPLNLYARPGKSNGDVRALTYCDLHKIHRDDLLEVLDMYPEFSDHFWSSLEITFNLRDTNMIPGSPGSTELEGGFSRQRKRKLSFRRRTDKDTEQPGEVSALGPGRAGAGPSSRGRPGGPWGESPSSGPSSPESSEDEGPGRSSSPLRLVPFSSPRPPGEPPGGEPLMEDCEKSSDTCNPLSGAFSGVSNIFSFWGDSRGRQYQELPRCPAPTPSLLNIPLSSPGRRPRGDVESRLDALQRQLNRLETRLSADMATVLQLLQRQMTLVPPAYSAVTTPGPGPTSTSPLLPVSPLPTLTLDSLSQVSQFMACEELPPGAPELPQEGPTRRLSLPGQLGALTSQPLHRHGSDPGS

SMILES | hERG current change (%, negative = inhibition) at 10uM [%]
N#CC1=C(N)SC(C(=O)c2ccccc2)C1c1cccs1 (stereo not shown) | 4.14
CSc1ccccc1-c1nnc(-c2ccc(Cl)c(Cl)c2)o1 | 14.4
Cc1cccc(N2CCN(c3ccc4cc(S(=O)(=O)N5CCCCC5)ccc4n3)CC2C)c1 (stereo not shown) | 9.91
Fc1ccc(CNCc2cccc(Br)c2)cc1 | 13.9
COC(=O)N=Nc1c(O)n(Cc2ccccc2)c2ccccc12 | -6.53
COc1ccc(CCNC(=O)c2cc(C(=O)c3cc(C)ccc3O)cn(CCc3ccc(OC)cc3)c2=O)cc1 | 13.9
O=C(COc1ccc(F)cc1)N/N=C/c1cccc2cccnc12 | 15.6
CC(NC(=O)C(=O)N1CCCCC1)C(c1cccs1)N1CCN(c2ccccc2F)CC1 (stereo not shown) | 1.73
CN(C)c1oc(COc2ccccc2F)nc1C#N | -11.7
CN(CCO)Cc1csc2ccc(Br)cc12.Cl | -9.69
O=C(OCC(=O)N1CCc2ccccc21)c1cncc(Br)c1 | 2.65
COc1ccc(-c2nc3n(c(=O)c2C#N)CCS3)c(OC)c1 | -1.78
O=C(O)CCC(=O)NNC(=O)c1ccc(Br)cc1 | 7.04
COC(=O)CSc1[nH]c(=O)cc(C)c1C#N | 19.9
COc1cccc(-c2nc(CS(=O)(=O)CC(=O)NCCC(C)C)c(C)o2)c1 | -10.7
CCOC(=O)c1cc(-c2ccccc2)nc2nc(N3CCCCC3)sc12 | 4.04
COc1cc(CC(=O)NCCc2ccc(OCc3ccccc3)cc2)c([N+](=O)[O-])cc1OC | -0.949
CCOc1ccc(NC(=O)c2ccc(N3CC4CC(C3)c3cccc(=O)n3C4)c(NC(=O)CCN3CCOCC3)c2)cc1 (stereo not shown) | -12.1
CCOC(=O)CN1C(=O)NC2(CCCc3ccccc32)C1=O (stereo not shown) | 12.6
CC(=O)Nc1ccc(SC[C@H](CC(C)C)N2CCN(CCc3ccccc3)CCC2=O)cc1 | -59.1
CCC1Oc2ccccc2N(CC(=O)Nc2ccc(OC)cc2OC)C1=O (stereo not shown) | 13.5
COc1ccc(Nc2c3ccccc3nc3ccccc23)cc1 | -69.6

SMILES | hERG current change (%, negative = inhibition) at 10uM [%]
O=c1[nH]c(/C=C\c2cccnc2)c([N+](=O)[O-])c(=O)[nH]1 | 11.7
CCCCCN(C(=O)CCC(=O)OCC(=O)c1c(C)cc(C)cc1C)c1c(N)n(CCCC)c(=O)[nH]c1=O | -28.1
CC(C)CN1C(=O)c2ccc(C(=O)Nc3ccc(O)cc3C(=O)O)cc2C1=O | 15
O=C(COc1ccc2c3c(c(=O)oc2c1)CCC3)N1CCN(c2ccc(F)cc2)CC1 | -24.2
COc1ccc(/C=C/C(=O)Nc2nnc(C(C)C)s2)cc1OC | 6.49
Fc1cccc(Cl)c1Cn1ncc2ccccc21 | -7.36
C/C(=N\NC(=O)c1ccc(N(C)C)cc1)c1ccc(C)c(C)c1 | -14.5
O=C(CCN1CCN(Cc2ccccc2)CC1)Nc1cccc(Br)c1 | -63
CCCCCCNC(=O)Cc1c(O)c2ccccc2[nH]c1=O | 3.59
Cc1nnc(N2C(=O)C(=O)/C(=C(/O)c3ccc4c(c3)OCCO4)C2c2ccc([N+](=O)[O-])cc2)s1 (stereo not shown) | 19.9
Cc1ccc(NC(=S)N(CCCN2CCCC2)Cc2cccn2Cc2ccc(Cl)cc2)cc1C | 4.72
COC(=O)CCC(=O)N1CN2CN(C(=O)CCC(=O)OC)CC([N+](=O)[O-])(C2)C1 | -7.66
CN(C)c1ccc(CNc2nc(-c3ccccc3)nn2S(C)(=O)=O)cc1 | 9.74
CC1=C(C(=O)Nc2ccccc2)C(c2ccncc2)C(C#N)=C(SCC(=O)NC(C)C)N1 (stereo not shown) | 1.55
COC(=O)CC(NC(=O)C1CC1)c1ccc2c(c1)OCO2 (stereo not shown) | -5.76
O=C(Nc1cccc2ccccc12)NC(Cc1ccccc1)C(=O)O (stereo not shown) | 22.4
C=CCn1c(=O)c(C(=O)NCc2ccccc2)c(O)c2ccccc21 | 15.4
COc1ccc(C(=O)Oc2cc(C)c(CN3CCOCC3)cc2C)cc1OC | -34.2
CC1(C)CC(NC(=S)NC(=O)c2cc(Br)ccc2Cl)CC(C)(C)N1 | -53.3
CN1/C(=C\C=C2\N=C(c3ccc(F)cc3)OC2=O)C(C)(C)c2ccccc21 | -8.98
COc1ccc(CCNc2nnc(C)c(=O)[nH]2)cc1OC | -3.67
CCCCn1c(N)c(N(C(=O)CSc2nnc(C)n2-c2ccccc2)C2CCCC2)c(=O)[nH]c1=O | 2.38

SMILES | hERG current change (%, negative = inhibition) at 10uM [%]
Cc1cc(C(=O)CSc2nnc(N)s2)c(C)n1C1CC1 | 3.28
COc1ccccc1NS(=O)(=O)c1ccc(O)c(C(=O)OCC(=O)c2ccc(Cl)cc2Cl)c1 | 23.4
N#C/C=C(/c1ccc(F)cc1)N1CCOCC1 | 15.5
CCCCC(=O)Oc1c(S(=O)(=O)c2ccccc2)c(C)nn1C(C)(C)C | 5.46
CN(C(=O)COC(=O)CNC(=O)c1ccc2ccccc2c1)c1c(N)n(Cc2ccccc2)c(=O)[nH]c1=O | -42.6
CC(=O)N1CCN(c2ccc(NC(=O)C(C)Oc3ccc(Cl)cc3Cl)cc2)CC1 (stereo not shown) | -39.6
Cc1noc(C)c1S(=O)(=O)N1CCN(C(c2ccccc2)c2ccc(Cl)cc2)CC1 (stereo not shown) | -5.9
CN(C(=O)Cn1cc(C(F)(F)F)cc(Cl)c1=O)C1CCS(=O)(=O)C1 (stereo not shown) | 0.375
Oc1c(Br)cc(Br)cc1CNn1cnnc1 | 21.5
Cc1cccc(N(Cc2ccccc2)C(=O)Cc2ccc(S(=O)(=O)N3CCOCC3)s2)c1 | -29.1
Cc1ccc(NS(=O)(=O)c2cc([N+](=O)[O-])ccc2N/N=C/c2sc(N3CCOCC3)nc2-c2ccccc2)c(C)c1 | 8.06
Cc1noc(N)c1C1(O)C(=O)N(C(C)C)c2ccccc21 (stereo not shown) | 8.01
O=C(Nc1ccccn1)c1cc(-n2cnnc2)ccc1Cl | -21.6
Cc1cc(C(=O)N2CCCC(C(=O)c3cc(F)ccc3F)C2)c(C)o1 (stereo not shown) | -4.31
CCC(C(=O)NC1CCCC1)N(C(=O)c1snc(C(N)=O)c1N)c1ccc2c(c1)OCCO2 (stereo not shown) | 3.65
Cc1cc2nc(-c3ccc(=O)[nH]c3)n(C)c2cc1C | 10.4
CCCN(C(=O)c1cn(C)c(=O)c2ccccc12)c1ccccc1C | -5.38
Cc1ccc(CNC(=O)C(=O)NCCC2CCCCN2S(=O)(=O)c2cccs2)cc1 (stereo not shown) | -1.28
CCCCOc1ccc(-c2nc(=S)[nH][nH]2)cc1 | -2.69
CC(=O)NCCC1CCN(C(=O)c2cc(COc3ccc(C)nc3)on2)CC1 | 16.4
CC(C)(C)C(=O)NC(=S)Nc1ccc(S(=O)(=O)Nc2nccs2)cc1 | 11.2
COC(=O)C1=C(c2cccc(C#N)c2)C[C@@H]2CC[C@H]1N2C(=O)NCCOc1ccc(OC)cc1 | -20.3

SMILES | hERG current change (%, negative = inhibition) at 10uM [%]
CS(=O)(=O)N(CC(=O)N1CCCCC1)Cc1ccccc1 | -1.07
Cc1cc2nc(C)n(CCCNC(=O)Nc3cccc4ccccc34)c2cc1C | -13.7
CCCn1nc(C(=O)NNC(=O)CCOc2ccccc2OCC)c2ccccc2c1=O | -21.8
O=C1OCc2cc(NS(=O)(=O)c3cccs3)ccc21 | 7.25
COc1ccc(OC)c(S(=O)(=O)N2CCC(C(=O)N3CCc4ccccc4C3)CC2)c1 | -27.7
Cc1ccc(S(=O)(=O)NCCC(C)C)cc1[N+](=O)[O-] | -19.3
NC(=O)Cc1ccc(C(=O)c2ccc(Cl)cc2)s1 | 11.4
COC(=O)C1=C(CS(=O)(=O)c2ccc(C)cc2)NC(=O)NC1c1ccc(OC)c(OC)c1 (stereo not shown) | 13.2
COc1ccc(OC)c2c(N)c(C#N)c(C(F)(F)C(F)(F)F)nc12 | 12.8
Cn1c(=O)c2c(nc(N3CCOCC3)n2CCc2ccccc2)n(C)c1=O | 34.9
COc1ccc(OC)c(NC(=S)N2c3ccccc3CC2C)c1 (stereo not shown) | -25.7
COCCCNC(=O)CCCn1c(=O)c2ccccc2n(Cc2cccc([N+](=O)[O-])c2)c1=O | -20.3
COCCCn1c(SCc2ccc(OC)cc2)nc2cc(OC)c(OC)cc2c1=N | -0.472
CCCc1cc(=O)n2nc(N3CCC(C(=O)NCc4ccc(C)o4)CC3)sc2n1 | -61.6
CCCCNC(=O)c1onc(CSc2cccc(C)c2)c1C(=O)O | 9.56
COc1ccc(C(=O)CCS(=O)(=O)c2ccc(F)cc2)cc1OC | 6.41
OCC1(CC2CCCCO2)CCN(Cc2nc3ccccc3[nH]2)CC1 (stereo not shown) | 18
CCOC(=O)C1(Cc2cccc(OC)c2)CCN(Cc2cccn2-c2ccccn2)CC1 | -74.8
COc1cc(C2C(C#N)=C(N)Oc3c2ccc2ccccc32)ccc1OCC(=O)Nc1ccccc1C (stereo not shown) | 22.1
